Experimental data from publication PMC9911399, “Two distinct binding modes provide the RNA-binding protein RbFox with extraordinary sequence specificity”.
Positions count from the first letter of the chain named. Some of the results follow.

T1: RBFOX1 RRM (Homo sapiens, UniProt Q9NWB1 109-208)
T1 sequence: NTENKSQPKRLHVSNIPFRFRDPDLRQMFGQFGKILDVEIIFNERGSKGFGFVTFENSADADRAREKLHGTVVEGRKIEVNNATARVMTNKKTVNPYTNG

B1: CGAGGUC (DNA:RNA)
RNA: GGGAGACCGGAAUUCAGAUUGUCCCGAGGUCUUAAAUCCCGUCGUAGCCACCA
DNA 1: CAATCTGAATTCCGGTCTCCC
DNA 2: TGGTGGCTACGACGGGATT
B2: AGAUUAA (DNA:RNA)
RNA: B1 RNA with C25A, G28U, G29U, U30A, C31A
DNA 1: CAATCTGAATTCCGGTCTCCC
DNA 2: TGGTGGCTACGACGGGATT
B3: GUUAUCA (DNA:RNA)
RNA: GGGAGACCGGAAUUCAGAUUGUCCGUUAUCAUUAAAUCCCGUCGUAGCCACCA
DNA 1: CAATCTGAATTCCGGTCTCCC
DNA 2: TGGTGGCTACGACGGGATT
B4: GCUUGCU (DNA:RNA)
RNA: B3 RNA with U26C, A28U, U29G, A31U
DNA 1: CAATCTGAATTCCGGTCTCCC
DNA 2: TGGTGGCTACGACGGGATT
B5: GUUCGGU (DNA:RNA)
RNA: B3 RNA with A28C, U29G, C30G, A31U
DNA 1: CAATCTGAATTCCGGTCTCCC
DNA 2: TGGTGGCTACGACGGGATT
B6: CUCCCUU (DNA:RNA)
RNA: B1 RNA with G26U, A27C, G28C, G29C, C31U
DNA 1: CAATCTGAATTCCGGTCTCCC
DNA 2: TGGTGGCTACGACGGGATT
B7: GUUUCCU (DNA:RNA)
RNA: B3 RNA with A28U, U29C, A31U
DNA 1: CAATCTGAATTCCGGTCTCCC
DNA 2: TGGTGGCTACGACGGGATT
B8: CUCGCUC (DNA:RNA)
RNA: B1 RNA with G26U, A27C, G29C
DNA 1: CAATCTGAATTCCGGTCTCCC
DNA 2: TGGTGGCTACGACGGGATT
B9: GCACCAC (DNA:RNA)
RNA: B1 RNA with C25G, G26C, G28C, G29C, U30A
DNA 1: CAATCTGAATTCCGGTCTCCC
DNA 2: TGGTGGCTACGACGGGATT
B10: CACUUCU (DNA:RNA)
RNA: B3 RNA with G25C, U26A, U27C, A28U, A31U
DNA 1: CAATCTGAATTCCGGTCTCCC
DNA 2: TGGTGGCTACGACGGGATT
B11: UUAUCGU (DNA:RNA)
RNA: B1 RNA with C25U, G26U, G28U, G29C, U30G, C31U
DNA 1: CAATCTGAATTCCGGTCTCCC
DNA 2: TGGTGGCTACGACGGGATT
B12: UAGGCGU (DNA:RNA)
RNA: B1 RNA with C25U, G26A, A27G, G29C, U30G, C31U
DNA 1: CAATCTGAATTCCGGTCTCCC
DNA 2: TGGTGGCTACGACGGGATT
B13: CAACCGC (DNA:RNA)
RNA: B1 RNA with G26A, G28C, G29C, U30G
DNA 1: CAATCTGAATTCCGGTCTCCC
DNA 2: TGGTGGCTACGACGGGATT
B14: CUUUGGG (DNA:RNA)
RNA: B1 RNA with G26U, A27U, G28U, U30G, C31G
DNA 1: CAATCTGAATTCCGGTCTCCC
DNA 2: TGGTGGCTACGACGGGATT
B15: GUUUGAA (DNA:RNA)
RNA: B3 RNA with A28U, U29G, C30A
DNA 1: CAATCTGAATTCCGGTCTCCC
DNA 2: TGGTGGCTACGACGGGATT
B16: CCAAACU (DNA:RNA)
RNA: B1 RNA with G26C, G28A, G29A, U30C, C31U
DNA 1: CAATCTGAATTCCGGTCTCCC
DNA 2: TGGTGGCTACGACGGGATT
B17: GCUACCC (DNA:RNA)
RNA: B3 RNA with U26C, U29C, A31C
DNA 1: CAATCTGAATTCCGGTCTCCC
DNA 2: TGGTGGCTACGACGGGATT
B18: UUUAAAG (DNA:RNA)
RNA: B3 RNA with G25U, U29A, C30A, A31G
DNA 1: CAATCTGAATTCCGGTCTCCC
DNA 2: TGGTGGCTACGACGGGATT
B19: ACAGCCU (DNA:RNA)
RNA: B1 RNA with C25A, G26C, G29C, U30C, C31U
DNA 1: CAATCTGAATTCCGGTCTCCC
DNA 2: TGGTGGCTACGACGGGATT
B20: GAUACGU (DNA:RNA)
RNA: B3 RNA with U26A, U29C, C30G, A31U
DNA 1: CAATCTGAATTCCGGTCTCCC
DNA 2: TGGTGGCTACGACGGGATT

target: T1, RBFOX1 RRM; test: EMSA; HiTS-Eq, 1 nM pool, 10 min; buffer printed only for the single-RNA assays: 10 mM Tris pH 7.5, 150 mM NaCl, 3.4 mM EDTA, 0.001% NP-40, 30 C; conditions: tags: His6 N-terminal (pET28a); label: 5' 32P
Outline: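 Purified wild-type or mutant RbFox RRM at increasing concentrations was equilibrated with 1 nM of 5′-radiolabelled RNA carrying 7 randomized nucleotides for 10 min in 50 µL. Unbound RNA was separated by 8% native PAGE and sequenced. Relative association constants came from read-count changes of each RNA species compared with the control reaction, normalised to the cognate motif.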

| Binder | binding signal |
| --- | --- |
| B1 | 0.0175 KA relative to UGCAUGU |
| B2 | 0.00242 KA relative to UGCAUGU |
| B3 | 0.0074 KA relative to UGCAUGU |
| B4 | 0.0354 KA relative to UGCAUGU |
| B5 | 0.0185 KA relative to UGCAUGU |
| B6 | 0.00176 KA relative to UGCAUGU |
| B7 | 0.0146 KA relative to UGCAUGU |
| B8 | 0.00968 KA relative to UGCAUGU |
| B9 | 0.00636 KA relative to UGCAUGU |
| B10 | 0.00466 KA relative to UGCAUGU |
| B11 | 0.0147 KA relative to UGCAUGU |
| B12 | 0.0146 KA relative to UGCAUGU |
| B13 | 0.00293 KA relative to UGCAUGU |
| B14 | 0.00295 KA relative to UGCAUGU |
| B15 | 0.023 KA relative to UGCAUGU |
| B16 | 0.000321 KA relative to UGCAUGU |
| B17 | 0.0102 KA relative to UGCAUGU |
| B18 | 0.00776 KA relative to UGCAUGU |
| B19 | 0.0038 KA relative to UGCAUGU |
| B20 | 0.0132 KA relative to UGCAUGU |
